# According to PubChem BioAssay AID686978 (National Center for Advancing Translational Sciences (NCATS), 2013):
# Among all 420,000 compounds or so, about 64,000 (15%) were called active. Inconclusive means that the source gave no clear call. Such entries were picked first, then a sample of the others. Calls follow the shape of the dose curve; as a rule, active = well fitted inhibition curve with a large enough effect; inconclusive = small, poorly fitted or top-dose-only effect; inactive = flat fitted curve, though single readings scatter. No potency is given beside an inconclusive call; the fits are too rough.
# Assay: qHTS for Inhibitors of human tyrosyl-DNA phosphodiesterase 1 (TDP1): qHTS in cells in absence of CPT; also: nearly all actives have a fitted effect of over 55% in size
# Details: DT40 Tdp1-/- hTDP1 cells, no CPT, ATP luminescence, 48 h; activity change, negative = growth inhibition: at 46.2 µM (top of the series)
# Method in brief: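 Camptothecin absent (DMSO only). Human TDP1-complemented DT40 knockout cells, 400 cells/well, 37 °C for minimum 48 hr; ATP measured via CellTiter-Glo, 30 min dark incubation, luminescence.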
# % is scaled to controls: 0 for no effect and ±100 for the full control effect; potency is read from the fitted curve at half-maximal effect; tags tell the direction and shape of the fitted curve.
Structure (SMILES),Potency,"activity change, negative = growth inhibition"
C/C(=N\NC(=O)c1nn(C)c(C)c1Br)c1cccc(NC(=O)c2ccoc2C)c1,"inconclusive [inhibitor, single point]",–
COc1ccc(N2CCN(C(=O)CCc3cc(OC)c(OC)c(OC)c3)CC2)cc1,"inconclusive [inhibitor, partial curve, poor fit]",–
CCOC(=O)[C@]12CCC=C1N(Cc1cccc3ccccc13)C(=O)[C@H](CC(=O)NCc1cccc3ccccc13)C2,"inconclusive [inhibitor, single point]",–
CC(C)c1ccc(NC(=O)CN2CCN(c3ccccn3)CC2)cc1,inactive,–
O=C(Cn1c(=O)oc2ccccc21)N(Cc1ccccc1)C1CCS(=O)(=O)C1 (centres undefined),"inconclusive [inhibitor, single point]",–
O=C(Nc1ccc(Cl)cc1)C1CCCN(c2cnccn2)C1 (centres undefined),"inconclusive [inhibitor, partial curve]",–
COc1ccc(CN2CCC(n3nccc3NC(=O)C3CC3)CC2)cc1O,inactive,–
Cc1ccc(OC(=O)c2c(C)nn(-c3ccccc3)c2C)cc1,"inconclusive [inhibitor, partial curve, poor fit]",–
O=C(Nc1ccc2c(c1)OCCO2)C1CC1c1ccccc1 (centres undefined),"inconclusive [inhibitor, single point]",–
CC(C)c1nccn1S(=O)(=O)c1cccc([N+](=O)[O-])c1,inactive,–
COCCNC(=O)C1(C)CCCN(Cc2cc(C(F)(F)F)ccc2Cl)C1 (centres undefined),"inconclusive [inhibitor, single point]",–
CCCC(=O)N1c2ccccc2-c2nnc(SC)nc2OC1c1sccc1C (centres undefined),"inconclusive [inhibitor, single point]",–
COC(=O)CCCC1=CC2=C(c3ccccc3)C(=O)C(C)(OC(=O)C3CCCC3)C(=O)C2=CN1Cc1ccco1 (centres undefined),"inconclusive [inhibitor, single point]",–
Cc1c(C(=O)C(=O)N2CC=C(c3ccccc3)CC2)c2ccccc2n1C,active: 2.59 µM,–
COc1ccc(C(=O)N/N=C(\Cc2ncc[nH]2)c2ccccc2)cc1,active: 2.91 µM,–
O=C(Nc1ccccc1-c1nnn(CC(=O)N2CCc3ccccc3C2)n1)C1CCC1,–,inconclusive: -34% [inhibitor]
CN1CCN(C(=S)c2cn(CCOc3ccccc3)c3ccccc23)CC1,inactive,–
COc1ccc(CCn2c(C)c(C(C)=O)c3cc(OC(=O)c4ccco4)ccc32)cc1OC,"inconclusive [inhibitor, single point]",–
O=C(CCNC(=O)c1ccc(Br)cc1)Nc1nccs1,inactive,–
COc1cc2c(cc1OC)C(C)N(C(=O)Cn1ncc3c1-c1cc(C)ccc1OC3)CC2 (centres undefined),"inconclusive [inhibitor, partial curve]",–
O=C(Cc1ccccc1)Nc1nnc(-c2ccccc2)o1,"inconclusive [inhibitor, single point]",–
CC(Oc1ccccc1)C(=O)Nc1c(C(=O)Nc2cccc(F)c2)oc2ccccc12 (centres undefined),"inconclusive [inhibitor, single point]",–

Structure (SMILES),Potency,"activity change, negative = growth inhibition"
Cc1ccc(C)c(N2CCN(S(=O)(=O)c3cc(C(=O)Nc4ccccc4C(F)(F)F)ccc3F)CC2)c1,active: 13 µM,–
COC(=O)c1ccc2nc(-c3ccc(C)cc3)c(Cc3ccccc3OC)n2c1,"inconclusive [inhibitor, single point]",–
Cc1ccc(NC(=O)c2cnccn2)cc1S(=O)(=O)N1CCCCCC1,active: 23.1 µM,–
CCOC(=O)c1ccc(NC(=O)C(=O)NCc2ccccn2)cc1,"inconclusive [inhibitor, partial curve]",–
CN(C)S(=O)(=O)c1cccc(C(=O)N(Cc2ccc(F)cc2)Cc2ccco2)c1,"inconclusive [inhibitor, single point]",–
CCOC(=O)CN1C(=O)N[C@@H](c2ccco2)C(C(=O)OC)=C1C,inactive,–
N#Cc1ccc(C(=O)OCCc2cc3ccccc3c(=O)o2)cc1,inactive,–
CCOC(=O)c1cc2sccc2n1CC(=O)c1ccc2c(c1)OCCO2,active: 13 µM,–
CN(C)c1ccnc(Oc2ccc(Cl)cc2)c1C#N,"inconclusive [inhibitor, single point]",–
Cc1ccc(C)c(S(=O)(=O)NCc2ccc(C(=O)N3CCN(c4ccccc4)CC3)cc2)c1,"inconclusive [inhibitor, single point]",–
O=S(=O)(c1ccc(NC(=S)N2CCCCC2CO)cc1)N1CCOCC1 (centres undefined),"inconclusive [inhibitor, single point]",–
CC1Cc2cc(/C=C3/SC(N4CCC(C(N)=O)CC4)=NC3=O)ccc2O1 (centres undefined),active: 18.4 µM,–
COc1ccc(Cl)cc1NC(=O)CN(C)C(=O)C1COc2ccccc2O1 (centres undefined),inactive,–
CN(C)c1ccc(CNC(=O)Cn2c(-c3cccs3)cc3cc(Cl)ccc32)cc1,"inconclusive [inhibitor, single point]",–
CCCCCn1c(CCC(=O)Oc2ccccc2OC)nc2c1c(=O)[nH]c(=O)n2CCCC,"inconclusive [inhibitor, full curve, poor fit]",–
CCOC(=O)C1=C(C)N(CCCCCC(=O)O)C(=O)NC1c1ccc([N+](=O)[O-])cc1 (centres undefined),inactive,–
Cc1cc(NC(=O)Cn2c(=O)oc3ccccc32)no1,inactive,–
COc1ccccc1-c1nc(SCC(=O)Nc2ccccc2F)n[nH]1,"inconclusive [inhibitor, single point]",–
CCOc1ccc(-c2noc(-c3cccnc3)n2)cc1OCC,"inconclusive [inhibitor, single point]",–
C=C(C)CSc1cc(C)nc2c(-c3ccccc3)c(C)nn12,"inconclusive [inhibitor, single point]",–
COc1ccccc1NC(=O)N1CCN(c2nnc(C)c3c(C)n(-c4ccccc4)nc23)CC1,"inconclusive [inhibitor, single point]",–
Cc1noc(C)c1-c1ccc2ncnc(NCc3cccs3)c2c1,active: 23.1 µM,–
